These results are taken from patent publication US20250163048A1 (Tango Therapeutics, Inc., priority 2022, published 2025).

Experiment [1] deals with HAP1 MTAP-intact cell line. The experiment is described as follows: SDMA in-cell western assay, HAP1 MTAP-intact. The settings on record: Homo sapiens, HAP1, read-out: Hap1 MTAP intact IC50, SDMA in-cell western, HAP1 MTAP-intact cell line.
The test system of experiment [2] is HAP1 MTAP-deleted cell line. The experiment is described as follows: SDMA in-cell western assay, HAP1 MTAP-deleted. The settings on record: for IC50 / IC90: Homo sapiens; for IC50: HAP1, read-out: Hap1 MTAP deleted IC50, SDMA in-cell western, HAP1 MTAP-deleted cell line; for IC90: HAP1, read-out: Hap1 MTAP deleted IC90, SDMA in-cell western, HAP1 MTAP-deleted cell line; for Hap1 MTAP intact/deleted ratio: IC50 ratio between HAP1 MTAP-intact and HAP1 MTAP-deleted cell line, SDMA in-cell western.

SMILES strings stand for the structures.

One may read the IC50 as the concentration that inhibits the measured activity by half. Usually IC90 stands for the concentration at which the effect reaches the 90% level.

Regarding `C[C@H]1CC[C@H](c2cccnc2)N(C(=O)C(=O)Nc2cnc(N)c3cn[nH]c23)C1` [Compound 144, N-(4-amino-1H-pyrazolo[4,3-c]pyridin-7-yl)-2-((2R,5S)-5-methyl-2-(pyridin-3-yl)piperidin-1-yl)-2-oxoacetamide], the IC50 in experiment [1] is above 50 nM. Moreover, in experiment [2], the IC50 is below 5 nM, the IC90 was below 75 nM and the “Hap1 MTAP intact/deleted ratio” value is “A (“A” indicates an IC50 ratio greater than or equal to 30 fold)”.
`C[C@H]1CC[C@H](C2CCOCC2)N(C(=O)C(=O)Nc2cnc(N)c3cn[nH]c23)C1` [Compound 150, N-(4-amino-1H-pyrazolo[4,3-c]pyridin-7-yl)-2-((2R,5S)-5-methyl-2-(tetrahydro-2H-pyran-4-yl)piperidin-1-yl)-2-oxoacetamide]: the IC50 in experiment [1] is above 50 nM. In experiment [2], the IC50 lay in the range of 5 to 50 nM, the IC90 is above 125 nM and the “Hap1 MTAP intact/deleted ratio” value is recorded as “A (“A” indicates an IC50 ratio greater than or equal to 30 fold)”.
